# Laboratory results from PubChem BioAssay AID1745853 (National Center for Advancing Translational Sciences (NCATS), 2022).
# The list shows a part of the results. These are further read-outs of the screen, such as a control signal, another cell line or another target. No call is given for them.
# Legend:
# Assay in all cases: Primary Screen for Target Class Profiling of Small Molecule Inhibitors of Methyltransferases
# [1] = target: Glycine N-methyltransferase (Homo sapiens) (UniProt Q14749); settings: purified enzyme, MTase-Glo SAH luminescence; measured here: GNMT inhibition; at 40 µM; stronger effect = lower value
# In short: (§1)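 Each enzyme was assayed with SAM and its substrate. SAH formation detected by MTase-Glo luminescence; single-point 40 uM screen[…].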
# [2] = target: Guanidinoacetate N-methyltransferase (Homo sapiens) (UniProt Q14353); settings: purified enzyme, MTase-Glo SAH luminescence; measured here: GAMT inhibition; at 40 µM; stronger effect = lower value
# In short: as §1
# [3] = target: Histamine N-methyltransferase (Homo sapiens) (UniProt P50135); settings: purified enzyme, MTase-Glo SAH luminescence; measured here: HNMT inhibition; at 40 µM; stronger effect = lower value
# In short: as §1
# [4] = target: Nicotinamide N-methyltransferase (Homo sapiens) (UniProt P40261); settings: purified enzyme, MTase-Glo SAH luminescence; measured here: NNMT inhibition; at 40 µM; stronger effect = lower value
# In short: as §1
# [5] = target: Phenylethanolamine N-methyltransferase (Homo sapiens) (UniProt P11086); settings: purified enzyme, MTase-Glo SAH luminescence; measured here: PNMT inhibition; at 40 µM; stronger effect = lower value
# In short: as §1
# % is scaled to controls: 0 for no effect and ±100 for the full control effect.
Structure (SMILES),"activity change, negative = inhibition [1] [%]","activity change, negative = inhibition [2] [%]","activity change, negative = inhibition [3] [%]","activity change, negative = inhibition [4] [%]","activity change, negative = inhibition [5] [%]"
CCCn1c(=O)c2ccc(C(=O)NC(C)C)cc2n2c(SCC(=O)Nc3ccc(C)cc3C)nnc12,0.411,2.62,3.25,11.9,2.56
CCN1C(=O)c2cc(C(=O)NCc3cccc(Br)c3)nn2CC1(C)C(=O)NC1CCCC1 (stereo not given),5.5,0,-3.33,-1.41,0.386
COc1ccc(-c2n[nH]n3c2nc(=O)c2ccc(C(=O)NCCCc4ccccc4)cc23)cc1,-8.91,6.83,-0.707,-1.24,-6.67
Cn1nc2n(c1=O)CCN(C1CCSCC1)CC2,-7.13,-9.37,-3.69,-17.1,-12.2
O=C(O)c1cccc(C2CCCN(C(=O)c3c(F)cccc3Cl)C2)c1 (stereo not given),-2.95,-3.47,-0.781,-4.48,-1.56
CS(=O)(=O)N(CC(=O)NCC1CC1)c1cc(C(F)(F)F)ccc1Cl,-1.71,-5,0.631,-17.9,-3.67
CCOC(=O)C1=C(CN2CCn3cccc3C2C)NC(=O)NC1c1cccc(OC)c1OC (stereo not given),-1.49,1.66,3.25,10,2.29
CC(C)c1nnc(C2CN(C(=O)c3ccc4ccccc4n3)CC23CCOCC3)o1 (stereo not given),-1.43,-2.48,0.079,-0.723,2.52
CC(C)CCNC(=O)C1(C)Cn2nc(C(=O)N3CCN(C)CC3)cc2C(=O)N1C (stereo not given),7.19,0.392,3.48,4.88,-0.455
COc1cc2c(NC3CCN(C(C)C)CC3)nc(N3CCC(F)(F)CC3)nc2cc1OCCCN1CCCC1,1.46,18.9,-80.2,-17.6,-6.37
CC(C)Cn1c(=O)c2ccc(C(=O)NC(C)C)cc2n2c(=O)n(CC(=O)NC(C)C)nc12,-4.8,-2.81,-1.62,-1.94,-4.51
COC1CCN(CC2CCCCCN2C(=O)c2ccoc2)CC1 (stereo not given),1.14,2.92,2.15,-3.28,19.3
CCc1cc2c(cc3n2CC(C)(C(=O)NC2CCCCCC2)N(C(C)CCc2ccco2)C3=O)s1 (stereo not given),-11.3,0,-0.496,-17.3,-2.62
CC#C[C@]1(O)CC[C@H]2[C@@H]3CCC4=CC(=O)CCC4=C3[C@@H](c3ccc(N(C)C)cc3)C[C@@]21C,-3.98,7.91,9.18,-15.8,-7.12
O=C1COCC2(CN1)CN(C(=O)c1ccc(Cl)cc1)C2,-0.26,-6.43,0.417,-5.41,-5.31
C[C@@H]1O[C@@H](O[C@H]2[C@H](O[C@H]3[C@H](O[C@H]4CC[C@@]5(C=O)C(CC[C@]6(C)C5CC=C5C7CC(C)(C)C[C@@H](O)[C@]7(C)CC[C@]56C)C4(C)C)O[C@H](C(=O)O)[C@@H](O)[C@@H]3O)OC[C@@H](O)[C@@H]2O)[C@H](O)[C@H](O)[C@H]1O (stereo not given in full),0.886,1.07,7.53,-12.2,0.326
CCCCN1C(=O)c2cc(C(=O)NCc3ccc(OC)cc3OC)nn2CC1(C)C(=O)NC1CCCC1 (stereo not given),-6.75,0.88,-8.08,-43.8,-4.81
CN(C)CCCNc1nc(CN2CCN(C(c3ccc(Cl)cc3)c3ccc(Cl)cc3)CC2)nc2ccccc12,-0.453,4.72,-42.1,-56,-2.1
COc1ccc(-c2n[nH]n3c2nc(=O)c2ccc(C(=O)NCCc4ccccc4)cc23)cc1,5.46,0.693,7.96,6.05,3.11

Structure (SMILES),"activity change, negative = inhibition [1] [%]","activity change, negative = inhibition [2] [%]","activity change, negative = inhibition [3] [%]","activity change, negative = inhibition [4] [%]","activity change, negative = inhibition [5] [%]"
COc1cc(SC)ccc1C(=O)N1CCC(Cc2ccccc2)CC1,-12.8,1.34,-4.91,-17.2,-1.28
CSc1cccc(N2C(=O)CSc3c(c4ccccc4n3C)C2C(=O)NCc2ccccc2)c1 (stereo not given),3.38,0,-0.139,-3.37,2.65
O=c1cc(-c2ccccc2)c2ccc(OCc3ccc(F)cc3Cl)cc2o1,0.458,0.91,4.83,5.12,-0.388
CN(C)c1cccc(Oc2nnnn2[C@H]2CO[C@H]3[C@@H]2OC[C@@H]3NCC2CC2)c1,-2.77,-3.17,-2.93,-4.75,-2.45
COc1ccc([C@@H]2CN(C(=O)CCc3c(C)noc3C)C[C@H]2N(C)C)cc1,-7.17,-10.3,-7.93,-23.2,-14.3
CC1(C(=O)NC2CCCCC2)Cn2c(ccc2-c2ccccc2)C(=O)N1Cc1ccc2c(c1)OCO2 (stereo not given),-1.59,0,-1.94,1.34,2.09
CCCN1C(=O)c2cc(C(=O)NCc3ccccc3F)nn2CC1(C)C(=O)NC1CCCC1 (stereo not given),1.53,0,2.12,2.26,-2.86
CC(C)OCCCn1c(=O)c2ccccc2n2c(CCC(=O)N3CCN(Cc4ccccc4)CC3)nnc12,-8.01,0,1.55,1.96,-1.05
CN(C)C(=O)N1CCN(c2ccc(Cl)nn2)C(=O)C1,-6.93,-7.29,-5.46,-11.1,0.418
CCn1c(=O)c(-c2ccn[nH]2)cc2c(C)nc(N)nc21,-14.1,-4.11,-0.893,-14.7,-9.58
CN(C)c1nc(NC2CC(c3cc(=O)[nH]c(C4CC4)n3)C2)ncc1F (stereo not given),-15,-8.52,-37.2,-16.1,-13.1
COc1ccc(-c2[nH]ncc2CN2CC[C@H]3CC[C@@H](C2)N3)cc1,-7.24,-5.99,-57.6,-12,-4.69
CCOC(=O)c1cc2n(n1)CC(C)(C(=O)NCCOC)N(Cc1ccccc1OC)C2=O (stereo not given),2,5.69,4.59,2.88,0.939
COC(=O)N[C@@H](C)CNc1nccc(-c2cn(C(C)C)nc2-c2cc(Cl)cc(NS(C)(=O)=O)c2F)n1,-12.7,-25.8,-6.3,-32.2,-18.6
CCCN1C(=O)c2c(C(=O)NCc3ccccc3F)ncn2CC1(C)C(=O)NCc1ccc(C)cc1 (stereo not given),-5.28,0,-2.69,-1.65,1.04
C[N+]1(CC2COC(c3ccccc3)(c3ccccc3)O2)CCCCC1 (stereo not given),-2.4,8.34,-18.8,-20.4,-10.9
CCc1cccc(CC)c1NC(=O)N1Cc2[nH]nc(NC(=O)c3ccc(N4CCN(C)CC4)cc3)c2C1,-0.582,10.3,-19.2,-10.4,-1.2
Cc1noc(C)c1[S+](=O)([O-])N1CCCC1C(=O)N1CCC(c2nc3ccncc3[nH]2)CC1 (stereo not given),-5.58,-10.9,-10.2,-16.3,-10.7
